Measurements published in the supplement of paper PMC8948288.
Shown are siRNA guide strands that differ only in the seed, positions 2 to 7.

Assays:
[1] = test system: H4; test: cell viability relative to siNT1 (ATP content); H4 human neuroglioma and GL261 mouse glioma; higher = less toxic; settings: siRNA concentration 10 nM; 96 h; human
Experimental: (§1)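 Arrayed screen of all 4096 6mer seeds. Each seed sits at guide-strand positions 2-7 of a neutral 19mer siRNA backbone (siNT1-based, passenger strand 2'-O-methyl modified at positions 1-2 to block RISC loading, 3' DNA overhangs). The guide strand is built here as U + seed + ACAUGUAAACCA. Cells were reverse transfected in triplicate in 384-well plates (H4 at 10 nM, GL261 at 25 nM) with Lipofectamine RNAiMAX. Viability was read as ATP content (CellTiter-Glo) 96 h after transfection and normalised to siNT1 (%).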

[2] = test system: GL261; test: as above; settings: siRNA concentration 25 nM; 96 h; mouse
Experimental: as §1
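Also: cells reverse transfected with siRNA duplexes via lipid reagent, ATP read by luminescence, triplicate wells, values scaled to mean viability with non-targeting control siNT1.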

UAUUAACACAUGUAAACCA gave a cell viability [1] of 97.6% and a cell viability [2] of 56.7%.
For UAUUAAGACAUGUAAACCA, the cell viability [1] was 95.4% and the cell viability [2] was 63%.
In the case of UAUUAAUACAUGUAAACCA, the cell viability [1] is reported as 88.8% and the cell viability [2] is reported as 67.6%.
In the case of UAUUACAACAUGUAAACCA, the cell viability [1] is reported as 99.4% and the cell viability [2] is reported as 66.8%.
Sequence UAUUACCACAUGUAAACCA has a cell viability [1] of 59.5% and a cell viability [2] of 26.6%.
Sequence UAUUACGACAUGUAAACCA has a cell viability [1] of 103% and a cell viability [2] of 55.1%.
Work on UAUUACUACAUGUAAACCA yielded a cell viability [1] of 89% and a cell viability [2] of 54.7%.
UAUUAGAACAUGUAAACCA was tested, and the cell viability [1] was 88% and the cell viability [2] was 52.1%.
UAUUAGCACAUGUAAACCA gave a cell viability [1] of 84% and a cell viability [2] of 42.7%.
Work on UAUUAGGACAUGUAAACCA yielded a cell viability [1] of 90.5% and a cell viability [2] of 71.2%.
For UAUUAGUACAUGUAAACCA, the cell viability [1] was 89.2% and the cell viability [2] was 40%.
UAUUAUAACAUGUAAACCA gave a cell viability [1] of 102% and a cell viability [2] of 49.3%.
UAUUAUCACAUGUAAACCA showed a cell viability [1] of 83% and a cell viability [2] of 64.8%.
For UAUUAUGACAUGUAAACCA, the cell viability [1] was 101% and the cell viability [2] was 56.3%.
In the case of UAUUAUUACAUGUAAACCA, the cell viability [1] is reported as 108% and the cell viability [2] is reported as 63.1%.
For UAUUCAAACAUGUAAACCA, the cell viability [1] was 83.7% and the cell viability [2] was 55.5%.
With UAUUCACACAUGUAAACCA the cell viability [1] was 60.2% and the cell viability [2] was 46.8%.
Sequence UAUUCAGACAUGUAAACCA has a cell viability [1] of 77.3% and a cell viability [2] of 65.3%.
For UAUUCAUACAUGUAAACCA, the cell viability [1] was 94.2% and the cell viability [2] was 42.8%.
With UAUUCCAACAUGUAAACCA the cell viability [1] was 97.9% and the cell viability [2] was 67.8%.
Sequence UAUUCCCACAUGUAAACCA has a cell viability [1] of 72.3% and a cell viability [2] of 40.4%.
UAUUCCGACAUGUAAACCA showed a cell viability [1] of 104% and a cell viability [2] of 61.9%.
In the case of UAUUCCUACAUGUAAACCA, the cell viability [1] is reported as 74.5% and the cell viability [2] is reported as 35.8%.
UAUUCGAACAUGUAAACCA was tested, and the cell viability [1] was 92.9% and the cell viability [2] was 63.8%.
UAUUCGCACAUGUAAACCA showed a cell viability [1] of 73.2% and a cell viability [2] of 28.2%.
Sequence UAUUCGGACAUGUAAACCA has a cell viability [1] of 113% and a cell viability [2] of 51.9%.
With UAUUCGUACAUGUAAACCA the cell viability [1] was 77.2% and the cell viability [2] was 67.9%.
In the case of UAUUCUAACAUGUAAACCA, the cell viability [1] is reported as 55% and the cell viability [2] is reported as 58.4%.
UAUUCUCACAUGUAAACCA gave a cell viability [1] of 85.5% and a cell viability [2] of 17.1%.
In the case of UAUUCUGACAUGUAAACCA, the cell viability [1] is reported as 84% and the cell viability [2] is reported as 73.5%.
UAUUCUUACAUGUAAACCA gave a cell viability [1] of 101% and a cell viability [2] of 61.1%.
UAUUGAAACAUGUAAACCA gave a cell viability [1] of 116% and a cell viability [2] of 57.6%.
UAUUGACACAUGUAAACCA gave a cell viability [1] of 105% and a cell viability [2] of 50.7%.
UAUUGAGACAUGUAAACCA gave a cell viability [1] of 98% and a cell viability [2] of 43.7%.
Sequence UAUUGAUACAUGUAAACCA has a cell viability [1] of 87% and a cell viability [2] of 75.2%.
With UAUUGCAACAUGUAAACCA the cell viability [1] was 86% and the cell viability [2] was 54.5%.
In the case of UAUUGCCACAUGUAAACCA, the cell viability [1] is reported as 15.3% and the cell viability [2] is reported as 43.5%.
UAUUGCGACAUGUAAACCA showed a cell viability [1] of 91.7% and a cell viability [2] of 58.2%.
Work on UAUUGCUACAUGUAAACCA yielded a cell viability [1] of 65.9% and a cell viability [2] of 43.6%.
UAUUGGAACAUGUAAACCA showed a cell viability [1] of 67.4% and a cell viability [2] of 61.4%.
With UAUUGGCACAUGUAAACCA the cell viability [1] was 69.8% and the cell viability [2] was 9.92%.
With UAUUGGGACAUGUAAACCA the cell viability [1] was 56.5% and the cell viability [2] was 66.2%.
Work on UAUUGGUACAUGUAAACCA yielded a cell viability [1] of 55.4% and a cell viability [2] of 84.5%.
UAUUGUAACAUGUAAACCA was tested, and the cell viability [1] was 72.3% and the cell viability [2] was 80.5%.
Sequence UAUUGUCACAUGUAAACCA has a cell viability [1] of 77.7% and a cell viability [2] of 44.1%.
Sequence UAUUGUGACAUGUAAACCA has a cell viability [1] of 109% and a cell viability [2] of 64.7%.
Work on UAUUGUUACAUGUAAACCA yielded a cell viability [1] of 77.3% and a cell viability [2] of 54.8%.
UAUUUAAACAUGUAAACCA gave a cell viability [1] of 90.1% and a cell viability [2] of 75.4%.
For UAUUUACACAUGUAAACCA, the cell viability [1] was 97% and the cell viability [2] was 60.5%.
UAUUUAGACAUGUAAACCA showed a cell viability [1] of 110% and a cell viability [2] of 62.3%.
With UAUUUAUACAUGUAAACCA the cell viability [1] was 106% and the cell viability [2] was 50.5%.
UAUUUCAACAUGUAAACCA gave a cell viability [1] of 103% and a cell viability [2] of 62.9%.
Work on UAUUUCCACAUGUAAACCA yielded a cell viability [1] of 84.8% and a cell viability [2] of 18.6%.
Sequence UAUUUCGACAUGUAAACCA has a cell viability [1] of 101% and a cell viability [2] of 55.5%.
Sequence UAUUUCUACAUGUAAACCA has a cell viability [1] of 75.3% and a cell viability [2] of 44.7%.
With UAUUUGAACAUGUAAACCA the cell viability [1] was 116% and the cell viability [2] was 51.3%.
UAUUUGCACAUGUAAACCA gave a cell viability [1] of 68% and a cell viability [2] of 32.4%.
In the case of UAUUUGGACAUGUAAACCA, the cell viability [1] is reported as 96.2% and the cell viability [2] is reported as 43.2%.
UAUUUGUACAUGUAAACCA was tested, and the cell viability [1] was 99.4% and the cell viability [2] was 59.7%.
In the case of UAUUUUAACAUGUAAACCA, the cell viability [1] is reported as 110% and the cell viability [2] is reported as 72.2%.
UAUUUUCACAUGUAAACCA gave a cell viability [1] of 49% and a cell viability [2] of 20.2%.
UAUUUUGACAUGUAAACCA gave a cell viability [1] of 111% and a cell viability [2] of 58.5%.
With UAUUUUUACAUGUAAACCA the cell viability [1] was 92% and the cell viability [2] was 64.2%.
For UCAAAAAACAUGUAAACCA, the cell viability [1] was 87.7% and the cell viability [2] was 50.4%.
In the case of UCAAAACACAUGUAAACCA, the cell viability [1] is reported as 112% and the cell viability [2] is reported as 67.2%.
For UCAAAAGACAUGUAAACCA, the cell viability [1] was 89.7% and the cell viability [2] was 43.6%.
UCAAAAUACAUGUAAACCA showed a cell viability [1] of 120% and a cell viability [2] of 41.4%.
UCAAACAACAUGUAAACCA was tested, and the cell viability [1] was 112% and the cell viability [2] was 53.2%.
Work on UCAAACCACAUGUAAACCA yielded a cell viability [1] of 77% and a cell viability [2] of 32.3%.
Work on UCAAACGACAUGUAAACCA yielded a cell viability [1] of 105% and a cell viability [2] of 64%.
UCAAACUACAUGUAAACCA was tested, and the cell viability [1] was 78.2% and the cell viability [2] was 44.1%.
UCAAAGAACAUGUAAACCA gave a cell viability [1] of 112% and a cell viability [2] of 56.4%.
In the case of UCAAAGCACAUGUAAACCA, the cell viability [1] is reported as 65.9% and the cell viability [2] is reported as 9.35%.
UCAAAGGACAUGUAAACCA showed a cell viability [1] of 92.9% and a cell viability [2] of 46.6%.
UCAAAGUACAUGUAAACCA showed a cell viability [1] of 70.5% and a cell viability [2] of 35.6%.
UCAAAUAACAUGUAAACCA was tested, and the cell viability [1] was 83.8% and the cell viability [2] was 52.5%.
Work on UCAAAUCACAUGUAAACCA yielded a cell viability [1] of 85.5% and a cell viability [2] of 42.2%.
UCAAAUGACAUGUAAACCA gave a cell viability [1] of 100% and a cell viability [2] of 59.1%.
Sequence UCAAAUUACAUGUAAACCA has a cell viability [1] of 113% and a cell viability [2] of 88.9%.
Work on UCAACAAACAUGUAAACCA yielded a cell viability [1] of 95.3% and a cell viability [2] of 58.9%.
Sequence UCAACACACAUGUAAACCA has a cell viability [1] of 103% and a cell viability [2] of 35.1%.
Sequence UCAACAGACAUGUAAACCA has a cell viability [1] of 83.2% and a cell viability [2] of 41.3%.
For UCAACAUACAUGUAAACCA, the cell viability [1] was 91.7% and the cell viability [2] was 63%.
In the case of UCAACCAACAUGUAAACCA, the cell viability [1] is reported as 66.9% and the cell viability [2] is reported as 61%.
Work on UCAACCCACAUGUAAACCA yielded a cell viability [1] of 48.4% and a cell viability [2] of 35.3%.
UCAACCGACAUGUAAACCA showed a cell viability [1] of 100% and a cell viability [2] of 34.7%.
